# Source: PubChem BioAssay AID2675 (National Center for Advancing Translational Sciences (NCATS), 2010)
# Among all 280,000 compounds or so, about 100 (0.036%) were called active. Inconclusive results, whose numbers are uncertain, are shown with a selection of clear calls. The call rests on the fitted dose curve; in most records, active means well fitted inhibition curve with a large enough effect in the signal ratio, with a control signal flat (not every such curve was filed as active); inconclusive means small, poorly fitted or top-dose-only effect, or effect the other way, or a change in a side signal; inactive means no such curve, though single readings can be large or run the other way; the % refers to the signal ratio. Potencies beside an inconclusive call are fits to weak or partial responses and may not hold up. A note “side channel” means that the fit belongs to a control or component signal, not to the main read-out.
# Target: Muscleblind-like protein 1 (Homo sapiens) (UniProt Q9NR56)
# Chain of UniProt Q9NR56 (Q9NR56 whole entry, looked up): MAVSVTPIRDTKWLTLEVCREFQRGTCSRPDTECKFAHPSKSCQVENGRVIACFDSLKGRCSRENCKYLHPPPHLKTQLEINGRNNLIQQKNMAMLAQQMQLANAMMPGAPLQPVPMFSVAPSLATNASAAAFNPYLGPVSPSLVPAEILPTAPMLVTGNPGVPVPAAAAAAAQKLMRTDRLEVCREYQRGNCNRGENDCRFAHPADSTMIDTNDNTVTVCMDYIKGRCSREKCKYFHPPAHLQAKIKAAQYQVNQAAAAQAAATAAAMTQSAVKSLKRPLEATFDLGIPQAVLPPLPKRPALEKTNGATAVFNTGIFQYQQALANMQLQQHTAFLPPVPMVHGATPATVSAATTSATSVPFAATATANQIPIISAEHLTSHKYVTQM
# Assay: qHTS Assay for Inhibitors of MBNL1-poly(CUG) RNA binding
# Details: TR-FRET MBNL1-His/biotin-(CUG)12 binding, 665/545 ratio; series mostly up to 57.5 µM
# Outline: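 His-tagged MBNL1 binding to biotinylated (CUG)12 RNA was measured by TR-FRET using terbium anti-His antibody (0.055 ng/ul final) and streptavidin-XL665 (5 nM final). Compounds were titrated 92 nM to 58 uM; 60 min at room temperature.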
# Potency means the concentration at half of the fitted maximal effect; tags describe the fitted curve by direction and shape or compound fluorescence and quenching.
row,Compound,Potency
1,Cc1cccc(/C=N/NC(=O)c2ccc(NC(=O)c3cccc(Cl)c3)cc2)n1,inactive
2,c1ccc2c(-c3csc(-c4ccncc4)n3)c[nH]c2c1,"inconclusive: 17.8 µM [quencher, side channel, partial curve]"
3,O=C(Nc1nnc(/C=C/c2ccccc2)s1)c1ccco1,"inconclusive: 31.6 µM [quencher, side channel, single point]"
4,CCC(=S)/C=C1\Sc2ccc3ccccc3c2N1CCCS(=O)(=O)O,"inconclusive: 11.2 µM [quencher, side channel, partial curve]"
5,CCC12CCCN3CCc4c(n(c5ccccc45)C(O)(C(=O)OC)C1)C32 (stereo unspecified),"inconclusive: 11.2 µM [quencher, side channel, partial curve]"
6,O=c1[nH]c(=O)c2cc([N+](=O)[O-])cc([N+](=O)[O-])c2[nH]1,"inconclusive: 11.2 µM [quencher, side channel, partial curve]"
7,COc1ccc(C2=CC(c3ccco3)n3ncnc3N2)cc1 (stereo unspecified),"inconclusive: 8.91 µM [quencher, side channel, partial curve]"
8,COc1ccc(/C=C/C(=O)N2CCN(C)CC2)cc1OC,"inconclusive: 8.91 µM [quencher, side channel, full curve]"
9,CC(C)C(NC(=O)c1ccc([N+](=O)[O-])cc1Cl)C(=O)N1CCCC1 (stereo unspecified),"inconclusive: 12.6 µM [quencher, side channel, partial curve]"
10,CC(C)[C@@H]1NC(=O)c2cc([N+](=O)[O-])cc(I)c2NCCC[C@@H](C(N)=O)NC(=O)[C@H](CO)NC1=O,"inconclusive: 12.6 µM [quencher, side channel, partial curve]"
11,CN(C)S(=O)(=O)c1cccc(NC(=O)COC(=O)CNC(=O)c2ccccc2F)c1,inactive
12,Cc1ccc(-n2c(=S)[nH]c3c(oc4ccccc43)c2=O)cc1C,inactive
13,CC(=O)Nc1ccc(S(=O)(=O)N2CCN(c3ccc([N+](=O)[O-])cc3)CC2)cc1,"inconclusive: 12.6 µM [quencher, side channel, partial curve]"
14,CN1C=CC=C/C1=C1\SC(=S)N(C2CCCCC2)C1=O,"inconclusive: 17.8 µM [quencher, side channel, partial curve]"
15,Fc1ccccc1N1CCN(C2CCN(Cc3c[nH]c4ccccc34)CC2)CC1,inactive
16,COc1ccc(N(C(=O)c2snc(C(N)=O)c2N)C(C(=O)NCc2ccccc2)c2ccc(O)cc2)cc1OC (stereo unspecified),"inconclusive: 14.1 µM [quencher, side channel, partial curve]"
17,CCN1C(=O)c2cccc3cccc1c23,"inconclusive: 31.6 µM [quencher, side channel, single point]"
18,CC(C)(C)c1ccc(S(=O)(=O)O/N=C2/CCCCC2c2ccc([N+](=O)[O-])cc2[N+](=O)[O-])cc1 (stereo unspecified),"inconclusive: 8.91 µM [quencher, side channel, partial curve]"
19,Cn1c(C(=O)c2ccncc2)cc2ccccc21,"inconclusive: 17.8 µM [quencher, partial curve]"
20,c1csc(-c2nc3ccccc3[nH]2)c1,inactive
21,CCN1CCN(c2nc3ccccc3nc2C(C#N)C(=O)OCc2ccccc2)CC1 (stereo unspecified),"inconclusive: 22.4 µM [quencher, side channel, partial curve]"

row,Compound,Potency
1,CC(C)N(CCNCC(O)COc1ccc(C(C)(C)c2ccccc2)cc1)C(C)C (stereo unspecified),inactive
2,Cc1nnc(NC(=O)c2c(F)cccc2F)s1,"inconclusive: 6.31 µM [quencher, side channel, single point]"
3,CCOc1ccc(N(C(=O)c2snc(C(N)=O)c2N)C(C(=O)NCC2CCCO2)c2ccc(C)o2)cc1 (stereo unspecified),"inconclusive: 7.08 µM [quencher, side channel, partial curve]"
4,COc1cc(/C=C2\SC(=Nc3ccccc3)NC2=O)cc(Cl)c1O,"inconclusive: 39.8 µM [quencher, single point]"
5,Cc1nc(NCc2ccco2)c2oc3ccccc3c2n1,inactive
6,O=c1c2ccccc2nc(/C=C/c2ccccc2)n1CCCO,"inconclusive: 20 µM [quencher, side channel, partial curve]"
7,O=C(c1ccccc1Oc1ccc(C(F)(F)F)cc1[N+](=O)[O-])N1CCOCC1,"inconclusive: 31.6 µM [quencher, side channel, single point]"
8,CCOC(=O)C1CCCN(C(=O)Cc2ccc(OC)c(OC)c2)C1 (stereo unspecified),inactive
9,Nc1ccc2nc(SCc3ccc([N+](=O)[O-])cc3)sc2c1,"inconclusive: 12.6 µM [quencher, side channel, partial curve]"
10,Cc1cccc2sc(NNC(=O)c3cc(=O)c4ccccc4o3)nc12,inactive
11,CCOC(=O)/C(C#N)=C/Nc1ccsc1C(C)=O,"inconclusive: 28.2 µM [quencher, side channel, single point]"
12,O=C(O)COc1ccccc1/C=C1\SC(=S)N(/N=C/c2ccccc2O)C1=O,"inconclusive: 14.1 µM [quencher, side channel, partial curve]"
13,N/C(=N\N=C\c1cccc(O)c1)c1nonc1N,"inconclusive: 25.1 µM [quencher, side channel, partial curve]"
14,C/C(=N\NC(=O)c1cc([N+](=O)[O-])cc([N+](=O)[O-])c1)c1ccco1,"inconclusive: 8.91 µM [quencher, side channel, partial curve]"
15,CC1CCCN(c2cc3c(cc2[N+](=O)[O-])C(=O)N(c2ccccc2)C3=O)C1 (stereo unspecified),"inconclusive: 2.82 µM [quencher, side channel, partial curve, poor fit]"
16,O=C(NCc1nc2ccccc2[nH]1)c1cccc(S(=O)(=O)N2CCOCC2)c1,inactive
17,COC(=O)CSc1nc2cc(C)ccc2cc1C#N,inactive
18,Cc1ccc(Nc2nc(Cl)c(C=O)s2)cc1,"inconclusive: 10 µM [quencher, side channel, partial curve]"
19,Nc1ccc2c3c(cccc13)C(=O)N(c1ccccc1)C2=O,"inconclusive: 3.55 µM [quencher, side channel, full curve]"
20,Cc1ccc(C(=O)N/N=C\c2ccc(Br)o2)o1,"inconclusive: 17.8 µM [quencher, side channel, partial curve]"
21,COc1ccc(C(=O)Nc2ccc3c(c2)OCCO3)cc1,"inconclusive: 39.8 µM [quencher, side channel, single point]"

row,Compound,Potency
1,CN(C)CCCNS(=O)(=O)c1ccc(NC2CCCCCC2)c([N+](=O)[O-])c1,"inconclusive: 14.1 µM [quencher, side channel, partial curve]"
2,Cc1cc(SCC(=O)c2cc(C)n(C)c2C)nc2ccccc12,"inconclusive: 17.8 µM [fluorescent, side channel, partial curve]"
3,Fc1ccc2c(c1)C(c1ccc(N3CCOCC3)cc1)=NNC(c1cccs1)=N2,inactive
4,Cc1cccc(Nc2ncnc(N)c2[N+](=O)[O-])n1,"inconclusive: 8.91 µM [quencher, side channel, partial curve]"
5,C=C1CCC2C(C)(C)[C@@H](O)CC[C@@]2(C)[C@@H]1COc1ccc2ccc(=O)oc2c1 (stereo partly specified),inactive
6,COC(=O)c1ccc(/C=N/NC(=O)C(=O)N2CCCCCC2)cc1,"inconclusive: 20 µM [quencher, side channel, partial curve]"
7,O=c1c2c3nc4ccccc4nc3n(/N=C/c3ccco3)c2ncn1CCC1=CCCCC1,"inconclusive: 25.1 µM [quencher, side channel, partial curve]"
8,O=C(c1ccc(N2CCCCC2)c([N+](=O)[O-])c1)N1CCOCC1,"inconclusive: 17.8 µM [quencher, side channel, partial curve]"
9,CCn1c(SCC(=O)Nc2ccc(C)cc2)nc2nc3c(cc2c1=O)CCCC3,"inconclusive: 39.8 µM [fluorescent, side channel, partial curve]"
10,O=C(O)c1cccc(-n2cnnn2)c1,"inconclusive: 39.8 µM [quencher, side channel, single point]"
11,CCc1ccc2[nH]c(O)c(N=Nc3nc(-c4ccccc4)cs3)c2c1,inactive
12,c1ccc2c(c1)CCN(c1nc3cc4c(cc3s1)OCO4)C2,"inconclusive: 39.8 µM [fluorescent, side channel, single point]"
13,O=C(CC(Nc1ccc(Cl)cc1Cl)C(=O)O)c1ccccc1 (stereo unspecified),inactive
14,O=C1C(NS(=O)(=O)c2cccs2)=C(N2CCN(c3cccc(Cl)c3)CC2)C(=O)c2ccccc21,"inconclusive: 3.55 µM [quencher, side channel, full curve, poor fit]"
15,CCOC(=O)CNC(=O)CSc1nc(-c2ccc(C)cc2)ns1,inactive
16,COc1cccc(NC(=O)c2cc([N+](=O)[O-])ccc2N2CCN(C)CC2)c1,"inconclusive: 17.8 µM [quencher, side channel, partial curve]"
17,COc1ccc(CCn2c(=N)c(C(=O)NC3CCCCC3)cc3c(=O)n4ccccc4nc32)cc1,"inconclusive: 0.631 µM [quencher, side channel, full curve]"
18,CCCCCNC(=O)C(C#N)c1nc2ccccc2nc1N1CCCC1 (stereo unspecified),inactive
19,CCNC(=O)c1sc(=S)n(CC)c1N,"inconclusive: 22.4 µM [quencher, side channel, single point]"
